Experimental data taken from PubChem BioAssay AID493208 (National Center for Advancing Translational Sciences (NCATS), 2011).
In all, about 44,000 compounds went through this assay and about 340 (0.77%) were called active. About 5% were inconclusive and are not listed. The call rests on the fitted dose curve; in most records, active means well fitted inhibition curve with a large enough effect; inconclusive means small, poorly fitted or top-dose-only effect; inactive means flat fitted curve, though single readings scatter. The list shows a part of the results.

Assay: Acumen qHTS Assay for Inhibitors of the mTORC1 Signaling Pathway in MEF (Tsc2-/-, p53-/-) Cells: Sytravon;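 further: plate controls were DMSO for no effect and rapamycin for full effect; nearly all actives have a fitted effect of over 50% in size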
Details: phospho-rpS6 immunofluorescence/PI, 24 h; series mostly up to 38.3 µM; activity change, negative = inhibition: at the top concentration
Outline: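 Tsc2-/-, p53-/- MEFs (empty-vector stable line) in DMEM + 10% FBS were treated with compounds 24 h at 37 degree Celsius, fixed, and immunostained for phospho-rpS6 (Alexa-488) with propidium iodide counterstain. Laser-scanning cytometry gave % positive cells, normalized against 7.5 nM rapamycin and DMSO.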

Activity change, negative = inhibition, inactive:
O=S(=O)(NCc1ccc(Cl)cc1)c1ccc(-c2cnc(C3CC3)o2)cc1 11.2%, Cc1ccccc1CN1C(=O)c2ccccc2Sc2ccc(C(=O)NC3CCCC3)cc21 11.4%, CCCCN(CCCC)C(=O)C1CCN(S(=O)(=O)c2cccc3nsnc23)CC1 -2.74%, Cc1ccc(Cl)cc1-n1ncc2c(N3CCCCCC3)ncnc21 0.171%, O=C(NCc1ccc(F)cc1)c1cc(-c2ccc(Cl)cc2)n[nH]1 -9.87%, O=C(Nc1cccnc1)c1cc(-c2cccc(Cl)c2)on1 6.09%, CCC(C)NC(=O)CCSc1nc(-c2ccc(OC)cc2)cc(C(F)(F)F)n1 (configuration not stated) 0.871%, CCc1ccc(S(=O)(=O)c2nnn3c2nc(Nc2ccc(F)cc2)c2cc(Cl)ccc23)cc1 0.237%, O=C(O)c1cccc(Nc2ncnc3scc(-c4ccccc4)c23)c1 -1.27%, COc1ccc(NC(=O)c2cc(CN3CCCC3)on2)cc1Cl -8.48%, Cc1ccc(C(=O)Nc2nnc(S(=O)(=O)N3CCc4ccccc43)s2)cc1 6.62%, Cc1ccccc1C(=O)Oc1c(Sc2ccccc2)c(C)nn1C(C)(C)C 2.05%, CCOc1ccc(NC(=O)c2cnc(Nc3ccccc3OC)c3ccccc23)cc1 -16.8%, COc1ccc(CCNC(=O)Cn2ncc3c(=O)oc4ccccc4c32)c(OC)c1 4.58%, COc1ccc(CC(=O)NCc2ccc3c(c2)CCN3C(=O)c2ccc(Cl)cc2)cc1 6.14%, CCc1ccc2oc(-c3cc(NC(=O)c4cccnc4)cc(C)c3O)nc2c1 1.5%, CCOc1ccc(CCNC(=O)CCSCc2ccc(Cl)cc2)cc1OCC 5.32%, CCC(=O)N1CCc2cc(Br)cc(S(=O)(=O)N3CCCC(C(=O)Nc4cccc(F)c4)C3)c21 (configuration not stated) -0.0904%, CCOC(=O)CSc1nc2sc3c(c2c(=O)n1-c1ccccc1)CCC(C(C)(C)C)C3 (configuration not stated) -0.986%, CC(C)Oc1ccc(CNC(=O)c2cccc(NC(=O)N3CCSc4ncccc43)c2)cc1 -1.3%, O=C(Nc1cccc(Br)c1)N1CCC(CN2CCCCCC2)CC1 -9.18%, COc1cccc(CNC(=O)CN(c2ccc(C(C)C)cc2)S(=O)(=O)c2c(C)noc2C)c1 2.19%, Cc1cc(C)cc(Oc2c(C(F)(F)F)oc3cc(OCC(=O)NC4CCCCC4)ccc3c2=O)c1 -10.6%, CCOC(=O)c1cc(-c2ccccc2)n(-c2cccc(C(=O)Nc3cc(OC)cc(OC)c3)c2)c1C -1.51%, CCOC(=O)c1sc(NC(=O)c2cc3nc(-c4ccccc4)cc(C(F)(F)F)n3n2)c(C(=O)OCC)c1C -1.35%, Cn1c(=O)oc2cc(S(=O)(=O)N3CCC(C(=O)Nc4ccc(F)c(Cl)c4)CC3)ccc21 -16.4%, Cc1ccc(C)c(CSc2nc3ccncc3n2CC(=O)Nc2ccc(N(C)C)cc2)c1 0.729%
